# Laboratory results published in the supplement of paper PMC3334620.
# The full ranking holds about 33,000 sequences; the median of “E-score (-0.5 to 0.5)” is about -0.011, and the highest 2% start at about 0.28. Some of the results follow.
# Biological target: T1, Gcr1 (UniProt P07261)
# T1 sequence: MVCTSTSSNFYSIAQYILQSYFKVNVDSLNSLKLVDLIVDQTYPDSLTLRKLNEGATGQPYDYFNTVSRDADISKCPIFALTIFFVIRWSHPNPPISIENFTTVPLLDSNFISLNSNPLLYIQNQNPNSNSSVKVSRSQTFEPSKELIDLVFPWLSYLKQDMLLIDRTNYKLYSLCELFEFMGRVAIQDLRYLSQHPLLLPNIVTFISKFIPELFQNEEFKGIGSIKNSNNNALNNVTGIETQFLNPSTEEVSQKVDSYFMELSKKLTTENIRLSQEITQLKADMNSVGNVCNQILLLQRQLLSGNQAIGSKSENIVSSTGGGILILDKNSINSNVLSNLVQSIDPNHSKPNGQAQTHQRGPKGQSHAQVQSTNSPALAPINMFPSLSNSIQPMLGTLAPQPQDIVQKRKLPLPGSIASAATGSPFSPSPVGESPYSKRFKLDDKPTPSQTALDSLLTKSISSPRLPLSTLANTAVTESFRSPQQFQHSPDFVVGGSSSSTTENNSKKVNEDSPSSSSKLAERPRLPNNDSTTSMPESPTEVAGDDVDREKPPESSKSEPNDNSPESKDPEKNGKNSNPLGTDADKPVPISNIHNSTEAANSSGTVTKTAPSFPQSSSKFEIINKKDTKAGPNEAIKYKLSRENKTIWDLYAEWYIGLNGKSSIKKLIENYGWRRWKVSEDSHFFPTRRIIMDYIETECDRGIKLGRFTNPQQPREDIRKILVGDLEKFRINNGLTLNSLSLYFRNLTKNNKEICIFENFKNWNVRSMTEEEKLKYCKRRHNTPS
# Test: PBM E-score (8-mer binding enrichment) (E-score (-0.5 to 0.5)); higher = stronger / more preferred TF binding; most listed sequences are background and not binding sites
# Settings: protein concentration: 100 nM; construct: GST-full length
# Method in brief: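 Using PURExpress in vitro transcription/translation, GST-tagged yeast transcription factors were made in full-length or DNA-binding-domain form. These were applied at about 100-200 nM to double-stranded universal all-10-mer Agilent arrays, and bound protein was detected with fluorescent anti-GST. Scans were normalised with masliner before the Universal PBM Analysis Suite assigned E-scores to ungapped eight-base words pooled with their reverse complements.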
row,Sequence,PBM E-score
1,TCATCAAA,-0.127
2,TCGTTAAA,0.122
3,CACATCTC,0.0324
4,TCGATAGA,-0.224
5,AAGTGGGG,-0.0252
6,GAGCAATA,0.0781
7,AGCACTTC,-0.125
8,CATTAGTA,0.0179
9,ACCCATCC,-0.0821
10,CCTTCCGC,-0.0943
11,AATAGTTA,0.0311
12,ACGCCTAC,-0.159
13,GAATGACC,-0.183
14,ATTAACAA,0.19
15,GAACACCA,-0.131
16,AGAGCCCG,0.00139
17,ACCGTTAT,-0.113
18,ACTCATCA,-0.0684
19,AATCGATA,-0.0363
20,AGGCACCA,0.136
21,CCTCCAAG,0.0179
22,CATTCTGC,-0.13
23,AATCATGC,-0.165
24,CTCAAGCA,-0.0307
25,TAAACAGA,0.113

row,Sequence,PBM E-score
1,ATCACCTA,-0.0775
2,ACACATGC,-0.0451
3,GAGGATCC,0.239
4,GTCTCGTA,-0.03
5,ATGAGATC,-0.139
6,CAAATTAA,0.07
7,CAAAACGA,-0.024
8,AACGGTGA,-0.196
9,AATACAAT,-0.0331
10,ATCCGTTC,-0.0718
11,CACGACGA,-0.106
12,AAGTGGAG,0.141
13,ACGCAACC,0.121
14,ACTCATAA,-0.0566
15,AGCTCATG,-0.0748
16,CTCTAAAG,0.154
17,CGGAGTCC,0.281
18,CGCGGCTA,0.018
19,GCATTGCA,-0.00476
20,AAGGGCAC,-0.16
21,ATCCCTAG,0.0838
22,CACTGAAC,-0.00372
23,ACGCGGTC,-0.067
24,ACCACCTA,0.102
25,CTGCCCCC,-0.15

row,Sequence,PBM E-score
1,AAAGGTAG,-0.0137
2,CTGACGCC,-0.0359
3,CTTGCCTC,0.0353
4,ATGCCCTA,-0.0726
5,CCTCTTCG,-0.0896
6,ACGTGGAG,0.0848
7,CCGGCTAC,0.0508
8,AGACTGTC,-0.219
9,CCCACGAG,-0.0381
10,CCACTAGA,0.235
11,CGCCCCAC,0.247
12,AACGAGCC,-0.301
13,AGCTTGCC,-0.277
14,AGGACTCC,0.195
15,GCGATGGA,0.00971
16,AGTATATA,0.127
17,GAGGTATC,0.0162
18,TCGAACGA,0.0237
19,ATACTGAC,-0.0716
20,CTGAAAAC,0.136
21,CATAAATA,0.187
22,CGGTGTAC,-0.0918
23,CCAAATAG,0.202
24,ACTCCTTC,0.0272
25,ACCCCTCT,-0.0888

row,Sequence,PBM E-score
1,CGGCTTTC,-0.0315
2,AGCTAGAG,-0.226
3,ACTGTCAG,-0.061
4,CGCAATCC,-0.0145
5,AATTACTC,0.0587
6,GTTAGGCA,-0.0488
7,GAGGTCTA,-0.128
8,ACCGTGTG,0.0726
9,AACATCGT,0.143
10,CGTTGGCA,-0.025
11,CCTACCGA,-0.124
12,AAAGGGTG,-0.0719
13,ACGGATTG,-0.0505
14,GATGCTGC,0.276
15,ACATGTGC,-0.0727
16,CGGGTCGA,-0.0506
17,GATAAACC,-0.164
18,GGGGTTGA,-0.131
19,CTAGAGAC,-0.0538
20,CTCGGAAG,0.0573
21,GACCTCTC,-0.0922
22,AACTACCG,-0.121
23,AATTTCGT,0.203
24,AGATAAAA,0.144
25,AACGCAGC,0.0364

row,Sequence,PBM E-score
1,AAGGTAGT,0.141
2,CGCTTGAG,-0.163
3,AAGCGACA,-0.0306
4,GACACATA,-0.104
5,AGGAACTC,0.182
6,AGTAACGA,-0.143
7,ACTGTTCA,-0.163
8,CACTCACA,-0.183
9,AGGTCCAT,-0.0602
10,TCGCTAAA,-0.138
11,ATTATATA,-0.0551
12,AGGCCGCA,-0.0993
13,CCGACACA,-0.151
14,GCCGGTGA,0.0355
15,AATCGCCG,0.0873
16,CACCGTCC,-0.216
17,CGATATCA,-0.111
18,CCATCAAG,-0.153
19,ACCATCCA,-0.0435
20,CCCCATGA,0.00788
21,AGAAAACG,-0.107
22,GGACTCCA,0.345
23,CATACCTC,-0.0593
24,GGCAAACC,-0.157
25,AGCGTTCA,0.0304

row,Sequence,PBM E-score
1,AGCTATGA,-0.162
2,AAATCTGA,0.0984
3,CATCGGAC,-0.129
4,GCGGTGAA,-0.156
5,TAACCTCA,-0.148
6,CACGTATA,0.0962
7,CCTGGGCA,-0.022
8,ATTAAGCG,0.00694
9,ACGTCTAT,-0.0908
10,CGTCCGGA,-0.0678
11,ATGATTGG,0.0187
12,GCTACGAA,-0.131
13,AAACAGCC,-0.118
14,ACTCATCC,-0.00995
15,ACTAAAGC,0.00585
16,AAAGCGTA,-0.0323
17,GCACGATA,0.0926
18,CACATTAA,-0.0572
19,TAGATCAA,0.0916
20,CAATCTGG,-0.0284
21,AAAGTGAT,0.0418
22,GACCCACC,-0.227
23,GATACCCA,-0.0925
24,AACGCTCC,-0.276
25,ATCAGGCA,-0.0639

row,Sequence,PBM E-score
1,ACCTCTCT,-0.107
2,AGCCTGAC,-0.349
3,GCATGTAA,0.0856
4,ACATGGGT,0.102
5,TCATAGGA,0.155
6,CTGACCGC,-0.0762
7,AAGGATAG,-0.13
8,GGAACTCA,0.00914
9,AGTAGCAC,0.287
10,TCATGGAA,0.037
11,ACAAGGGT,-0.0153
12,ACGCCTCG,-0.13
13,CTTAGCTA,-0.029
14,CTTCTCTC,-0.0493
15,ATCACCAG,0.124
16,GGTAGTCA,-0.00589
17,ACTGAAAA,0.17
18,CGCGGATA,0.14
19,ACGAACGC,-0.14
20,ACGTTAGG,-0.0499
21,TAAAGAAA,0.162
22,AGCTACGC,-0.0614
